Assay results reported in PMC3407747.
Results are given in words; binding and its absence hold for the method and conditions named. For some assays here: Binding seen in cells or lysates may run through a third protein. Some entries that bind do so weakly or less than the wild type. One block for each substance: values may come before it.

Protein sequences, listed by entry. Tags and fused reporters are not part of them. Lines headed by an entry give the natural chain unless they say otherwise; changes in a name come on top. Residues count along the entry.
UniProt P19491: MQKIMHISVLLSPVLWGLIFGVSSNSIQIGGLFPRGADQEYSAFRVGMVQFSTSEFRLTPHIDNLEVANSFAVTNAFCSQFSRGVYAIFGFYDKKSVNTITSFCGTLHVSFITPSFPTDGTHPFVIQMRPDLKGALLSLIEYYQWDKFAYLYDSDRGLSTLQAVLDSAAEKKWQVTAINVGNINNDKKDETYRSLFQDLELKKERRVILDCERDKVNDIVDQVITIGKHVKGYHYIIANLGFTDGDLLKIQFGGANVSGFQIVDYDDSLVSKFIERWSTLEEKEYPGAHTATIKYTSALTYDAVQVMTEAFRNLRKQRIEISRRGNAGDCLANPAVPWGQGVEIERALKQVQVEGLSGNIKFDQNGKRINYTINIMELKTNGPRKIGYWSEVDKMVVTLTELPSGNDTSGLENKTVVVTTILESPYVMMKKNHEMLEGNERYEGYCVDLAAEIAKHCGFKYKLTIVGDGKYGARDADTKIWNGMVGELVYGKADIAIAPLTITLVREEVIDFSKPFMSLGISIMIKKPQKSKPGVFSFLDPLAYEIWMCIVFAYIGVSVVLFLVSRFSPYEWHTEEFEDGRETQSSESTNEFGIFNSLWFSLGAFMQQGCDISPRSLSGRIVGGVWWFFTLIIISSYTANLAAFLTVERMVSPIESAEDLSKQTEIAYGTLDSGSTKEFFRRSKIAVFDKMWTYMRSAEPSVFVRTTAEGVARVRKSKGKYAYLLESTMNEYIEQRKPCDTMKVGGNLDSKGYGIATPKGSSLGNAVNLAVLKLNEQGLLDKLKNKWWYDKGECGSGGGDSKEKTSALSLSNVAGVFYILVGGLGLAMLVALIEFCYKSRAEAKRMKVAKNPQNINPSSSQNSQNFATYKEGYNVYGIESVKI
GluR2 subunit expressed in HEK-293 T cells (with GluR1): residues 22-883 of P19491
GST-GluR2NT (V22-E545): residues 22-545 of P19491
GST-GluR2NT1 (V22-S271): residues 22-271 of P19491
GST-GluR2NT1-3 (H122-K172): residues 122-172 of P19491
GST-GluR2NT1-3-2 (Y142-K172): residues 142-172 of P19491
GST-GluR2NT2 (K272-I421): residues 272-421 of P19491
GST-GluR2NT3 (L422-E545): residues 422-545 of P19491
GST-GluR2CT (I833-I883): residues 833-883 of P19491
UniProt P04797: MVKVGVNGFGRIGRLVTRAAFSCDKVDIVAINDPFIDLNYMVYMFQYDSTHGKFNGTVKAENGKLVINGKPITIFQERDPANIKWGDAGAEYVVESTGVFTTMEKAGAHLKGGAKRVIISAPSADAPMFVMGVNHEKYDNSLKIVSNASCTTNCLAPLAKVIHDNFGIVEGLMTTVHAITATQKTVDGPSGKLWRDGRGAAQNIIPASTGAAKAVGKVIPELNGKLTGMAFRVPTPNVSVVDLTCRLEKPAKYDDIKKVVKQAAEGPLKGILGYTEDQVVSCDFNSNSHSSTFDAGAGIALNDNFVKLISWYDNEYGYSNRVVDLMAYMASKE
UniProt P04406: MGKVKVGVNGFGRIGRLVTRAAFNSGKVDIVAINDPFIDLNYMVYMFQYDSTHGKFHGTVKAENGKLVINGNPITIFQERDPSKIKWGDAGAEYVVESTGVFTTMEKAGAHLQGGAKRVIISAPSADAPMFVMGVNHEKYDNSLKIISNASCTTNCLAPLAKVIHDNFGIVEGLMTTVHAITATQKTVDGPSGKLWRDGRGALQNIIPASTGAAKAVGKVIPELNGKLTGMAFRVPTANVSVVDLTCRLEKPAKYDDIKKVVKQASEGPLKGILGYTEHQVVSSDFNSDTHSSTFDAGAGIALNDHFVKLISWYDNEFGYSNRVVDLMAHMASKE

Tests used:
GST-GluR2NT2 (K272-I421) [1] = target: GST-GluR2NT2 (K272-I421) (UniProt P19491); test: in vitro binding assay; in vitro translated [35S]-GAPDH probe with GST fusion proteins; as previously described (refs 85-87); only the target purified
GST-GluR2NT3 (L422-E545) [2] = target: GST-GluR2NT3 (L422-E545) (UniProt P19491); test: as above
[3] = target: GST-GluR2NT1-3 (H122-K172) (UniProt P19491); test: as above
[4] = target: GST-GluR2NT1-3-2 (Y142-K172) (UniProt P19491); test: as above
GST-GluR2NT1 (V22-S271) [5] = target: GST-GluR2NT1 (V22-S271) (UniProt P19491); test: as above
[6] = target: GluR2 subunit of AMPAR, rat, endogenous (rat (endogenous in hippocampus)) (UniProt P19491); test: co-IP; GluR2 antibody, 500 ug protein from rat hippocampal neurons, with or without 100 uM kainic acid and pre-incubation with peptide
[7] = target: GluR2 subunit of AMPAR, rat, endogenous (rat (endogenous in hippocampus)) (UniProt P19491); test: condition: only in the non-biotinylated (intracellular) fraction; co-IP; GluR2 antibody; non-biotinylated (intracellular) fraction of primary rat hippocampal neurons labelled with sulfo-NHS-LC-biotin
GST-GluR2NT2 (K272-I421) [8] = target: GST-GluR2NT2 (K272-I421) (UniProt P19491); test: pull-down; GST fusion proteins used for affinity purification from solubilized rat hippocampal lysates; Western blot with a GAPDH antibody; only the target purified
GST-GluR2NT3 (L422-E545) [9] = target: GST-GluR2NT3 (L422-E545) (UniProt P19491); test: as above
[10] = target: GST-GluR2NT1-3 (H122-K172) (UniProt P19491); test: as above
GST-GluR2NT (V22-E545) = GST-GluR2NT (V22-E545) (UniProt P19491); test: as above
GST-GluR2CT (I833-I883) = GST-GluR2CT (I833-I883) (UniProt P19491); test: as above
[11] = target: GST-GluR2NT1-3-2 (Y142-K172) (UniProt P19491); test: as above
GST-GluR2NT1 (V22-S271) [12] = target: GST-GluR2NT1 (V22-S271) (UniProt P19491); test: as above
[13] = target: GluR2 subunit of AMPAR, rat, endogenous (rat (endogenous in hippocampus)) (UniProt P19491); test: co-IP; GluR2 antibody; biotinylated (cell surface) fraction of primary rat hippocampal neurons labelled with sulfo-NHS-LC-biotin, RIPA buffer, streptavidin beads
[14] = target: GluR2 subunit of AMPAR, rat, endogenous (rat (endogenous in hippocampus)) (UniProt P19491); test: co-IP; GluR2 antibody, solubilized proteins from rat hippocampal tissue; blot for GAPDH
[15] = target: GluR2 subunit expressed in HEK-293 T cells (with GluR1) (UniProt P19491); test: co-IP; GluR2 antibody, 500 ug protein from HEK-293 T cells expressing GluR1/2, with or without 100 uM glutamate and pre-incubation with peptide

binding (GST-GluR2NT2 (K272-I421) [1]): no binding
binding (GST-GluR2NT3 (L422-E545) [2]): no binding
binding [3]: binds
binding [4]: binds
binding (GST-GluR2NT1 (V22-S271) [5]): binds
Substance: in vitro translated [35S]-GAPDH probe (from UniProt P04797 1-333) (enzyme)

binding [6]: binds
binding [7]: no binding
binding (GST-GluR2NT2 (K272-I421) [8]): no binding
binding (GST-GluR2NT3 (L422-E545) [9]): no binding
binding [10]: binds
binding (GST-GluR2NT (V22-E545)): binds
binding (GST-GluR2CT (I833-I883)): no binding
binding [11]: binds
binding (GST-GluR2NT1 (V22-S271) [12]): binds
binding [13]: binds
binding [14]: binds
Substance: GAPDH (glyceraldehyde-3-phosphate dehydrogenase), rat, endogenous (from UniProt P04797 1-333) (enzyme)

binding [15]: binds
Substance: GAPDH, endogenous in HEK-293 T cells (from UniProt P04406 1-335) (enzyme)
